Results published in PubChem BioAssay AID894 (National Center for Advancing Translational Sciences (NCATS), 2007).
The whole screen tested about 150,000 compounds, of which about 6,500 (4.3%) were called active. Inconclusive means that the source gave no clear call. Such entries were picked first, then a sample of the others. Calls come from the whole dose curve; as a rule, active = well fitted inhibition curve with a large enough effect (not every such curve was filed as active); inconclusive = small, poorly fitted or top-dose-only effect, or another doubt; inactive = no such curve, though single readings can be large or run the other way. Potencies of inconclusive entries are doubtful fits and often do not repeat.

These compounds were tested against 15-hydroxyprostaglandin dehydrogenase [NAD(+)] (Homo sapiens) (UniProt P15428) (assay: qHTS Assay for Inhibitors of HPGD (15-Hydroxyprostaglandin Dehydrogenase)). Details: purified HPGD, NADH fluorescence kinetic, PGE2 substrate; activity change, negative = inhibition: hits give low values.
How it was run: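 NADH formation kinetics: reaction with 30 uM PGE2 and 1 mM NAD+ (final), 20 nM enzyme, Tris-HCl pH 8 with Tween 20, after 15 min compound preincubation at room temperature. Fluorescence change, last versus first of five reads.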
% is set by controls: 0 for no effect and ±100 for the full control effect; potency is the fitted concentration of half-maximal effect; tags give direction and shape of the fitted curve.

Chain of UniProt P15428 (P15428 whole entry, looked up): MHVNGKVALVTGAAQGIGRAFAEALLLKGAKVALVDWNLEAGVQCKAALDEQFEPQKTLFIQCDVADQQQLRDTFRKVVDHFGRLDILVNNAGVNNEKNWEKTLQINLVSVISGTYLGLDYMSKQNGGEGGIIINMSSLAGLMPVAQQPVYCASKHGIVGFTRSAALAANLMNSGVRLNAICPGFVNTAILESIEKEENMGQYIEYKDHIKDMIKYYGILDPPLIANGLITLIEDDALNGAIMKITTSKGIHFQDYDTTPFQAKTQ

Potency, active:
O=C(CSc1nnc(-c2cccs2)n1-c1ccccc1)N1CCCC1 25.1 µM
CCOC(=O)c1c(C)c(C(=O)NCC2CCCO2)c(C)n1CC (centres undefined) 22.4 µM
CC(=O)c1ccc(OCCCC(=O)n2nnc3ccccc32)cc1 20 µM
CCOC(=O)CSC(=S)NC(=O)c1ccc(OC)cc1 10 µM
COc1c(O)c(O)cc2c1oc1c3cc(C)ccc3oc(=O)c21 14.1 µM
Cc1nc2nc(SCC(=O)N3CCOCC3)nn2c(C)c1Cc1c(F)cccc1Cl 8.91 µM

Potency, inconclusive:
CN1CCN(CCNC(=O)c2cc3c(=O)n(C)c4ccccc4c3n2C)CC1 31.6 µM [inhibitor, partial curve]
COC(=O)Cn1c(=NC(=O)c2ccc(Cl)s2)sc2cc(F)ccc21 39.8 µM [inhibitor, single point]
Nc1ccc2nc(-c3ccc(N)c(Cl)c3)[nH]c2c1 28.2 µM [inhibitor, partial curve]
O=C(CC(c1ccccc1)C1CCCCC1=O)c1ccco1 (centres undefined) 25.1 µM [inhibitor, partial curve]
Cc1nc(NC(=O)CC(C)C)sc1-c1csc(Nc2ccc(Cl)cc2Cl)n1 35.5 µM [inhibitor, partial curve]
COc1c(OC2OC(C(=O)O)C(O)C(O)C2O)cc(O)c2c(=O)cc(-c3ccccc3)oc12 (centres undefined) 17.8 µM [inhibitor, partial curve]
O=C(O)CCn1c(-c2ccccc2)cc2c1CCCC2=O 22.4 µM [inhibitor, partial curve]
COc1ccc(OC)c(C2C(C(=O)Nc3nc4ccccc4s3)=C(C)NC3=C2C(=O)CCC3)c1 (centres undefined) 31.6 µM [inhibitor, partial curve]
O=C(NCc1ccc2c(c1)OCO2)c1ccccn1 28.2 µM [inhibitor, single point]
Cc1cccc2sc(N(CCCN(C)C)C(=O)c3nc4ccccc4s3)nc12 39.8 µM [inhibitor, single point]
CCc1cccc2nc3c(c([Si](CC)(CC)CC)c12)Cn1c-3cccc1=O 28.2 µM [inhibitor, partial curve]
CCOC(=O)c1c(NC(=O)CCC(=O)NCc2ccco2)sc2c1CCCC2 39.8 µM [inhibitor, partial curve]
Cc1ccc(C(=O)N2CCc3ccccc32)cc1 28.2 µM [inhibitor, partial curve]
O=S1(=O)c2cccc3cccc(c23)N1Cc1ccc(-c2nnco2)cc1 25.1 µM [inhibitor, single point]
N#CCSc1nc2ccc(N3CCOCC3)cc2c(=O)n1CCc1ccccc1 28.2 µM [inhibitor, single point]
CCOC(=O)N1CCC(NC(=O)Cn2ncc3c4ccccc4n(C)c3c2=O)CC1 17.8 µM [inhibitor, partial curve]
O=C(Nc1cccc(S(=O)(=O)N2CCOCC2)c1)c1cn(-c2ccccc2)nc1-c1ccccc1 39.8 µM [inhibitor, single point]
CCC(=O)N=c1sc2c(C)cc(C)cc2n1CC(=O)OC 31.6 µM [inhibitor, partial curve]
CCNc1nc(C)c2cc(Br)c(=O)n(CC)c2n1 25.1 µM [inhibitor, partial curve]
Cc1ccc2[nH]c(=O)c(C(c3nnnn3C(C)(C)C)N3CCN(C(=O)c4ccco4)CC3)cc2c1 (centres undefined) 39.8 µM [inhibitor, partial curve, poor fit]
CC(=O)N1CCC2(CC1)CCN(c1ccccn1)CC2 31.6 µM [inhibitor, single point]
[O-]/[N+](=C\c1ccncc1)c1ccc(Br)cc1 35.5 µM [inhibitor, single point]
CCCCn1c(=NC(=O)c2cccnc2)c(C#N)cc2c(=O)n3cccc(C)c3nc21 31.6 µM [inhibitor, partial curve]
NC(=S)c1ccc[n+]([C@@H]2O[C@@H](COP(=O)([O-])OP(=O)(O)OC[C@H]3O[C@@H](n4cnc5c(N)ncnc54)[C@H](OP(=O)(O)O)[C@H]3O)C(O)C2O)c1 (some centres undefined) 39.8 µM [inhibitor, single point]
CCNc1ncc2ncc(=O)n(C[C@H]3CCCO3)c2n1 31.6 µM [inhibitor, partial curve]
CCN(CC)CCCC(C)n1c(-c2ccccc2)nc2c(NC3CCCCC3)nc(C)nc21 (centres undefined) 17.8 µM [inhibitor, partial curve]

Activity change, negative = inhibition, inactive:
CCOC(=O)N1CCN(Cc2nc3c(c(=O)n(C)c(=O)n3C)n2Cc2cc(C)ccc2C)CC1 -3.86%
O=S(=O)(NCCNC/C=C/c1ccc(Br)cc1)c1cccc2cnccc12 -24.7%
CC(C)c1cc(NC(=O)CSc2nnc(-c3ccccc3F)n2C)on1 -0.981%
O=C(COc1ccc(Cl)cc1)NCc1nnc(SCC(=O)Nc2ccccc2)o1 -19.7%
COc1ccc(/C=C2\N=C(C)N(c3ccc4ccccc4c3)C2=O)cc1OC -11.2%
COc1ccc(N2C(=O)CCC(C(=O)Nc3cccc(C)n3)C2c2ccc(OC)c(OC)c2)cc1 (centres undefined) -4.25%
COc1ccccc1C(=O)Nc1ccc(C(=O)O)cc1 -2.07%
Cc1cccc(OCC(=O)Nc2ccc(S(=O)(=O)N3CCN(C)CC3)cc2)c1 -0.123%
CCOC(=O)CCNCC1COc2ccccc2O1 (centres undefined) -4.22%
O=C(COC(=O)/C=C/c1cccs1)Nc1nc(-c2ccccc2)cs1 -9.48%
O=C(CCCc1ccc(-c2ccccc2F)cc1)Nc1ccc(O)cc1 -17%
CCOc1ccc2nc(SCc3ccc(OC)cc3)sc2c1 -23.8%
